The values that follow come from PubChem BioAssay AID1347073 (National Center for Advancing Translational Sciences (NCATS), 2019).

Structures are written as SMILES. Hit rate of the full screen: of about 45,000 compounds, about 200 (0.44%) were called active. Roughly 7% stayed inconclusive and do not appear here. The call rests on the fitted dose curve; in most records, active means well fitted activation curve with a large enough effect; inconclusive means small, poorly fitted or top-dose-only effect; inactive means no such curve, though single readings can be large or run the other way. The list shows a part of the results.

This assay can be described thus: qHTS of TDP-43 Inhibitors: NCGC Sytravon Library Screen. Further: 0% is about no effect; nearly all actives have a fitted effect of over 55% in size. Particulars: yeast TDP-43 toxicity rescue, BacTiter-Glo growth, 24 h; series mostly up to 46.1 µM; growth rescue (activation): at the top concentration. A digest of the protocol: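 TDP-43-expressing yeast, pregrown in raffinose, seeded at OD600 0.02 in galactose medium with compound for 24 hr at 30 deg C. Growth read by BacTiter-Glo luminescence, so rescue of toxicity appears as activation.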
Regarding `COc1ccc(CN(CC(=O)NCc2ccc(F)cc2)C(=O)CCC(=O)Nc2nccs2)cc1`, the “growth rescue (activation)” value is inactive: -15.7%.
`O=C(CCc1nnc(CCCc2ccccc2)o1)NCCN1CCOC1=O`: the “growth rescue (activation)” value was inactive: 1.98%.
As for `CCCCc1ccc(NC(=S)NN2CCOCC2)cc1`, the “growth rescue (activation)” value is inactive: 24.1%.
Then `OCCNc1ncnc2c1ncn2[C@H]1CN(Cc2ccncc2)C[C@@H](CO)O1`, with inactive: 5.14%.
Then `O=C(N/C(=C/c1ccc(Br)cc1)C(=O)N1CCCC1)c1cccs1`, with inactive: 10.5%.
For `Cc1ccc(NC(=O)C2C3/C=C\CCCCC32)cc1` (stereo not given) the value was inactive: 4.61%; for `c1ccc(C2=Nn3c(nnc3-c3ccncc3)SC2)cc1`, inactive: 19.4%; for `CC(Oc1ccccc1)C(=O)Nc1ccc(S(=O)(=O)N2CCCC2)cc1` (stereo not given), inactive: 9.31%.
Take `Cc1cccc2cc(C#N)c(SCc3nnc(-c4ccccc4[N+](=O)[O-])o3)nc12`: the “growth rescue (activation)” value is inactive: -2.4%.
For `CC1(Cc2ccc(C(F)(F)F)nc2)C(=O)Nc2cc(-c3ccccc3Cl)ccc21` (stereo not given) the value was inactive: -3.08%; for `CC1(C)CC(=O)C(C(=S)Nc2ccc(F)cc2)=C(NCCN2CCOCC2)C1`, inactive: 0.0006%; for `O=C(COC(=O)Cc1ccccc1F)NCc1ccc(Cl)cc1`, inactive: 14.7%.
Then `CCOc1ccc(NS(=O)(=O)c2cc(C)c(C)cc2C)cc1`, with inactive: 24.2%.
Take `CCCN(CC(=O)Nc1ccc(NC(C)=O)cc1)CC(=O)Nc1ccc(F)c(F)c1F`: the “growth rescue (activation)” value is inactive: 6.28%.
For `O=C(COC(=O)Cc1ccsc1)Nc1ccccc1` the value was inactive: 13.1%.
Then `CCOC(=O)c1ccccc1NC(=S)N1CCN(C(=O)c2ccco2)CC1`, with inactive: 22.1%; and `COC(=O)[C@H](Cc1ccccc1)NC(=O)N1CCCCC1`, with inactive: 8.03%; and `O=C(Nc1ccc(F)c([N+](=O)[O-])c1)C1CC(=O)N(Cc2ccccc2)C1` (stereo not given), with inactive: 3.11%.
Take `COc1ccc(OC(C)C(=O)NCCc2nc3ccccc3[nH]2)cc1` (stereo not given): the “growth rescue (activation)” value is inactive: 8.52%.
As to `COc1ccc(S(=O)(=O)N2CCNCC2)cc1`, the “growth rescue (activation)” value was inactive: 9.56%.
`Cc1ccc(-c2ccc(/C=N/NC(=O)CN3CCOCC3)o2)cc1[N+](=O)[O-]`: the “growth rescue (activation)” value is inactive: 14.8%.
On to `CCN1CCN(C(=O)CN2C(=O)COc3ccc(C)cc32)CC1`, for which the “growth rescue (activation)” value was inactive: -7.78%.
Turning to `O=C(COC(=O)c1ccc(Cl)nc1)NCCc1ccc(Cl)cc1`, the “growth rescue (activation)” value was inactive: 12.6%.
Then `CC(=O)NC(c1cccc(F)c1)c1nc(/C=C/c2ccccc2)cs1` (stereo not given), with inactive: -5.64%.
`OC1(c2cccc(C(F)(F)F)c2)CCN(Cc2nnnn2Cc2ccccc2)CC1`: the “growth rescue (activation)” value is inactive: 0.872%.
In the case of `CCOc1nc(-c2ccccc2)ccc1-c1noc(COc2ccccc2)n1`, the “growth rescue (activation)” value was inactive: 24.6%.
For `COc1ccc(C2=NN(C(=O)CSc3nnc(C)n3C)C(c3ccco3)C2)cc1` (stereo not given) the value was inactive: 9.53%; for `COc1cc(CCC(=O)OCC(=O)NC(=O)c2ccc(Cl)cc2)cc(OC)c1OC`, inactive: 15.5%.
For `Oc1nc(Nc2ccc(Cl)cc2Cl)sc1/C=C1\C=Nc2ccccc21` the value was inactive: 15.1%; for `Cc1cccc(NC(=O)c2sc3nc(N)c(C#N)cc3c2N)c1`, inactive: -2.44%.
